Data published in the supplement of paper PMC3334620.
The full ranking holds about 33,000 sequences; the median of “E-score (-0.5 to 0.5)” is about -0.04, and the highest 2% start at about 0.36. Some of the results follow.

These sequences were tested against T1, Hmlalpha2 (UniProt P0CY09) (assay: PBM E-score (8-mer binding enrichment) (E-score (-0.5 to 0.5)); higher = stronger / more preferred TF binding; most listed sequences are background and not binding sites). Settings: protein concentration: 200 nM; construct: GST-full length.
T1 sequence: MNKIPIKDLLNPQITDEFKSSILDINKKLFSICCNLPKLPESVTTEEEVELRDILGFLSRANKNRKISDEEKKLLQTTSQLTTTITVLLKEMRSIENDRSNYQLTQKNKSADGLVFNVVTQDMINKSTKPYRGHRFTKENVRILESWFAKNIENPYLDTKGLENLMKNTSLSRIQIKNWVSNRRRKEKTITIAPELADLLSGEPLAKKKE
Summary of the method: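 E-scores (a modified Wilcoxon-Mann-Whitney statistic) were assigned by the Universal PBM Analysis Suite to every ungapped eight-base word pooled with its reverse complement. The input came from universal all-10-mer Agilent arrays made double-stranded by primer extension and probed with GST-tagged yeast transcription factors at about 100-200 nM. Fluorescent anti-GST detected bound protein, and masliner normalised the scans.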

Sequence	PBM E-score
AACTCTTG	-0.084
AGTCTGGG	-0.284
AACACGGC	0.359
ACCGGTTG	-0.0706
CGTCTCTC	-0.145
ACTCTTCA	0.073
ACCAGTCT	-0.0937
CACTAATG	-0.198
ACGTCTGG	0.0877
AAGTATAC	0.262
GTGACGCA	-0.0724
ACTTGAAC	0.133
ACTCCCCC	-0.367
ATTATGTA	0.415
ATCTTAGA	-0.0517
CATAATGG	-0.154
GTCGAATA	-0.123
GATATGAA	0.0756
ATACGCTA	0.103
AGACGGAG	-0.0994
CCGTTACC	-0.16
CACAGCGA	0.19
CGCAGATA	-0.0162
ATCTCGAC	-0.0114
CAGGAGGA	-0.136

Sequence	PBM E-score
GAATGGCA	-0.0628
ACGAGCGA	0.155
GACTACAA	0.0893
TAACGAAA	0.224
AGGCAGTA	-0.0689
GGCAACAC	0.0517
ACAAAAAC	0.17
GAACATAC	0.298
TCCGTACA	0.148
GTATCTAA	0.171
ATAATCGG	0.105
ATCTGATG	-0.205
ATACCATC	0.0769
CCTTGTTA	0.371
GCGGAAAC	-0.266
AGTCGTTA	-0.0983
ACGGTGTA	0.205
CGTCCCCC	-0.26
AAGAATAT	-0.124
GCGCACAA	0.0921
CTAGTTGC	-0.0756
GAGCGATA	-0.144
ACAGTGCG	-0.0486
ACTCCTCG	0.0131
AGACGTCT	-0.227

Sequence	PBM E-score
AAATGTGT	0.308
TCAATGCA	0.115
CTGATGTA	0.233
AGCGAATA	0.0664
AACTGTAC	0.0563
GTGAATCA	0.0678
GTTATACA	0.4
CCGGCCCC	-0.383
ACCTTGAG	0.0654
GAACAGTA	0.141
GGGTAAAC	0.0624
CAGAATGG	-0.205
ACCAGGGT	-0.202
AAATAGGG	-0.0284
GGCACTTA	-0.122
CAGTTAGG	-0.079
AGTCTTAG	-0.126
ATTGTACC	0.0764
CTCACGGC	-0.214
CACAGCTG	-0.0556
GGTACCGA	-0.236
TACGCCGA	0.0108
ACGCAGGG	0.163
CGTTTAAG	-0.102
AAGCGGGG	-0.0783

Sequence	PBM E-score
AGCTCAGC	0.00776
AACCATCG	0.0926
CTCGGTGC	-0.0932
GAAAAACC	-0.0498
AAATTTAC	0.375
CGCACTGC	-0.0457
CACCGCCA	-0.107
CAATTGCC	-0.12
GCGTCGCC	0.0305
CGGTTCTA	-0.13
ATGCCCAC	-0.109
CTCCAACC	-0.12
CCCCAGGG	-0.397
TAGAGAGA	-0.158
GTGATAAC	0.212
AGAGATGG	0.00818
ACAAATCA	0.116
GGATCACA	0.0466
AAGCCCGG	-0.287
AGATACCC	-0.196
CGCTCATA	-0.169
GACGAATC	0.0541
AGTAACAG	0.0731
ACATGAGC	0.335
GAACGATA	-0.104

Sequence	PBM E-score
ACCTCTGG	-0.183
CAGACCCC	-0.279
AAACCCTA	-0.0109
CAAAAACG	0.109
CTCGAAAA	-0.0219
CGGGGGCA	-0.292
CAACCAAG	0.0194
CCTTAGTA	-0.0554
CAACGACA	0.182
AACTCCGC	-0.135
CAGACCTA	-0.0166
CGGAGCAC	-0.16
ATCCTACA	0.0889
CGCAAGGC	-0.06
ATCATGCG	-0.0811
CGCGGGTC	0.0398
ATTCAAAG	0.0343
CGTAACAG	0.19
ACGGGGAG	-0.235
TGGTTGAA	-0.00825
GGCTAAAC	0.0125
GATAAATA	0.121
ATGATCCC	-0.241
CACCGAAG	-0.0848
AACGTCAC	0.00799

Sequence	PBM E-score
GGATTATA	-0.105
GGGCGCAA	0.00447
AAATTCAC	0.107
AGTTCGAG	0.0484
AATCCCCG	-0.16
ATCCGGGC	-0.318
TAAGTCGA	-0.0631
GTTCGATA	0.118
AGGCCCCC	-0.305
ACGTGAGA	0.0567
ACTTATGA	-0.0223
GCTTTTTA	0.0735
CTGGATAA	-0.108
ACCTTGGA	-0.128
AGAGAGTG	-0.159
AAAGGTCC	-0.0395
CTAGTGTC	-0.0696
GTTCTCGA	0.00834
AGGACGTG	-0.0262
AATTAATT	0.284
AGTTCTAA	0.00203
CATACGCC	0.0271
ACCACGCA	0.106
AGTGACTC	-0.191
GAGTTGGC	-0.0218

Sequence	PBM E-score
AGTAAGGC	-0.106
CCGGAAGA	-0.06
AACCGACG	-0.0509
AAACCATC	0.0802
CCCCAATA	-0.158
CGTTGATA	0.174
GGGCCAAA	-0.124
ATTCAATC	0.0769
GTTCCAGA	-0.102
GCAGCAGC	0.0731
ACGACGCG	0.302
ACGTACAG	0.0878
CACTGTGG	-0.147
AGGAGATG	-0.157
TAGACTAA	-0.0309
GCACATCA	-0.0833
GAAGGTCC	-0.194
GGTCAATA	-0.0809
ATGGTTCG	0.106
CGATGGGA	-0.232
TGGGTTAA	0.186
ACGTTACC	0.184
GTGTCACA	0.124
CCAGGGAA	-0.265
ACACCTGG	-0.0725

Sequence	PBM E-score
ATTTGCCA	-0.174
AGATAACT	-0.0355
TCTCACCA	-0.0591
GCGGATCA	-0.043
CATATGCC	-0.196
GGTGCGTA	0.281
AAAATTTG	0.0975
AGCGCTCC	-0.19
GGAGCACA	-0.0839
ATGGTGTA	0.249
CCACAGCA	0.0519
CATCTTGC	-0.0141
ACCGCAAT	0.0585
AACACGCG	0.406
ATGCTAAA	0.166
CAAAAATC	-0.0271
AGCGTAAA	0.22
GTAACCGA	0.0834
ATGAAGTG	-0.16
CTGAGAGA	-0.177
ATCAGTGC	-0.0196
AAGCTATC	0.0382
AAAAGCGT	-0.115
CAGGAACG	0.0165
ATGTACGA	0.281

Sequence	PBM E-score
GTAATTCA	0.346
GCCATGAC	-0.186
ACGGGTAG	0.123
CGACAGGC	-0.248
ACCTCCAG	-0.157
AACCGGAT	0.0919
ATGTTCCG	0.061
GATCATCC	-0.256
CCCGCACC	-0.26
ACAATTAG	0.1
AGTGACGA	0.0683
AGAGACAT	0.00684
AGAGTTTA	0.167
CACGTCCG	-0.0887
GGGGTTAA	-0.118
CGGACGGA	-0.198
ACCAATCC	-0.147
GACACTGA	-0.18
CCTTGAAC	0.0776
AAACTGGT	-0.0472
GTAGCACA	-0.0675
GAGTGTAC	0.0265
CTCAAATA	-0.131
GGTAAGAC	-0.144
CTGATTTA	0.107

Sequence	PBM E-score
CTTATACA	0.252
AGCTGGAT	-0.116
ACAAGGCC	0.176
ATCATGGG	-0.0934
AGCGTACA	0.094
AGGCCCGG	-0.319
CCCCCGAG	-0.419
AGAAGTTA	0.177
GGGCAACA	-0.131
CACAAGCA	0.0703
AACTGAGA	0.0995
ATTCAAGG	-0.146
GATGATAA	0.0849
CCCAATCG	-0.265
ACCAGCGT	-0.0531
ATACTAGG	0.00454
AAAAGGTG	-0.00979
AAGGGCCC	-0.209
ATCACGCG	0.144
TAGCACCA	-0.111
CGCAACTC	-0.00762
GCGAGTCA	-0.0741
AGGTTAGG	-0.2
AACAAAAA	0.125
ACCCAGGT	-0.29

Sequence	PBM E-score
GAACGCAA	0.114
ACGGAAAT	0.161
CTTGCGAA	0.184
ACTGCGTC	0.0279
ACTCGTTC	0.141
ATCGTCGG	-0.285
CTTGCATC	-0.144
ATGCCGCC	-0.0688
AGTATAGG	-0.226
CTAATAAC	0.203
CCAGCGAC	-0.0419
CATGCAAC	0.228
AAAAGACC	-0.185
ACTCTTTA	0.129
AATGCGTA	0.281
GTGCGTGA	0.192
AGCGACTA	0.0805
CTCGCGCC	-0.186
CAAGGCTA	0.0464
ACATCCTA	0.127
AAGTAGGT	0.0392
GTGTAAAA	0.467
ATTTTAAA	0.164
ATGCGGGA	-0.0343
CTCCTATC	-0.139

Sequence	PBM E-score
GGTCTATA	0.121
AGTGGGCC	-0.171
AGTGCTTA	0.0606
CTTGCCAC	-0.172
GTTGGGCA	0.0913
GGTATTGA	-0.045
GCCTTTAC	0.213
AATACACT	0.326
CCAGGCAG	-0.272
CCCTGCCA	-0.217
AAATCGTT	0.0182
ACAAATAG	0.161
CACCCCAA	0.0467
CCCGTTTA	0.123
ACGTTTTA	0.266
GACTATAC	-0.00437
TACCTTAA	-0.0463
CAGTCAGA	-0.0744
ACAGAGCT	0.0441
CCGGGGGC	-0.224
CCGTATAA	0.0386
ATTAAGAA	0.193
ACAGAGTA	0.226
ATCGCCTA	-0.285
GGGTACCA	-0.0469

Sequence	PBM E-score
ATCCAGAA	0.129
AATAAGGC	-0.158
GAGAAATA	0.13
GGACCTCC	-0.192
ATTCTCCC	-0.066
CAGTCTGA	-0.214
CGGTCGAA	-0.116
GCATTAGC	-0.217
CTTTGAAC	-0.0263
AAGTCAAG	-0.197
CCATTCCG	-0.225
ATGTTCTG	0.194
TCAAACAA	0.217
CACTTCAC	0.0895
AGCGCAAC	-0.083
CGGATTGC	-0.163
GCTATTGA	0.0255
CATTGTTC	0.182
AAAGTGCC	-0.179
AATAGCCG	-0.0462
ACTTCATA	0.019
CACGGATA	0.118
ACAGTGCA	0.00831
ACACATAT	0.317
CACTAAGG	-0.255

Sequence	PBM E-score
CTGAGGTA	-0.013
GCGTGATA	0.0582
CAATGACC	-0.169
GCGTGTTA	0.46
CCACTTTA	-0.136
CCCTAACG	-0.0128
CCAAATTA	0.192
AAACCGAA	-0.0136
GTTGCTTA	0.0629
CGAGTTTA	-0.0376
AACTTTGC	0.0158
AACATCCG	0.203
TCAGCTGA	0.113
ACCATCCG	-0.207
ATGAGCAG	0.00596
ACTTTGCG	-0.0412
ATGCCGGG	-0.146
CCTACACA	0.266
ACCCATCG	-0.101
